# In ChEMBL document CHEMBL4888484, “Replenishing the malaria drug discovery pipeline: Screening and hit evaluation of the MMV Hit Generation Library 1 (HGL1) against asexual blood stage Plasmodium falciparum ,using a nano luciferase reporter read-out” (2022):
# Out of some 150,000 compounds screened, about 540 (0.36%) showed an effect of 50% or more. This is one part of the list.
# Tested on: Plasmodium falciparum
# Experiment: Primary screen in NF54 nanoGlo assay, in single point, at 2uM, 72h; a lower Z score goes with more inhibition
# Format: functional, Erythrocyte
# Settings: timepoint 72 hour
SMILES,% Inhibition [%],Z score
C=CCONC(=O)Nc1ccc(Br)cc1,-13,1.71
Cc1nnc(CN2CC[C@@H]3OCc4cccc(c4)Oc4cc(ccc4C)C(=O)N(C)CC(=O)N[C@@H]3C2)s1,-5,0.97
Cc1cc(O)ccc1C(=O)N1CC[C@H](S(=O)(=O)NC2CC2)C1,-1,0.09
COc1cccc(C(=O)COc2cccc(N3C(=O)C4C5CCC(C5)C4C3=O)c2)c1 (centres undefined),-5,0.67
CS(=O)(=O)N1CCC[C@@H]1CNC1CCc2cc(Cl)ccc21 (some centres undefined),-12,1.26
COc1ccc(C(=O)Nc2ccc3nc4c(c(Nc5ccc(OC)c(OC)c5)c3c2)CCCC4)c(OC)c1,-8,0.97
COC(=O)[C@@](C)(O)CNc1ccc(C#N)cn1,-11,1.48
CS(=O)(=O)N1CC(N2CC(F)(F)C[C@H]2C(=O)N2CCc3ccccc3C2)C1,-9,1.04
O=c1cc(CN2CCN(c3ccccc3)CC2)ccn1CC1CC1,-9,0.94
COc1ccc(CCN2C(=O)[C@H](CC(=O)NCCn3ccnc3C)N=C2O)cc1,-2,0.27
Cc1cccc2sc(OC3CN(C(=O)C4CCN(S(C)(=O)=O)CC4)C3)nc12,-11,1.26
O=C(Cc1ccsc1)N1CCN(c2ccccn2)CC1,35,-3.92
CCOc1ccc(S(=O)(=O)N(Cc2cccn2C)C2CC2)cc1F,2,-0.34
CC(=O)c1cccc(C(=O)N2CC[C@@]3(CCCN(CC4CC4)C3=O)C2)c1,-20,1.99
Cc1cc(C)n2nc(C(=O)N3CC(n4cc(CN5CCCC5=O)nn4)C3)nc2n1,-6,1.12
Cc1nc(CN2CCC(C(=O)O)(n3ccc(C(C)C)n3)CC2)c[nH]1,10,-1.76
Cn1cc(N2C[C@@H](C(=O)NCCc3noc4ccccc34)CC2=O)cn1,-8,1.25
O=C(Nc1cnn(CC(=O)N2C[C@H]3CCC[C@@H]2C3)c1)c1ccc2c(c1)OCO2,24,-3
Cc1cc(N)n(CC(=O)NCc2csc3c2CCCC3)n1,5,-0.98
Cc1nccn1-c1ncnc2cc(F)ccc12,2,-0.31
CCCNC(=O)N1[C@H](COc2cccnc2)CN(C)C(=O)[C@@H]1Cc1ccccc1,-3,0.52

SMILES,% Inhibition [%],Z score
COc1ccccc1CCNC(=O)[C@@H]1C[C@H](n2cnnn2)CN1CC1CCCCC1,4,-0.73
CCc1ncc(C(=O)N[C@@H](Cc2ccccc2)C(=O)O)s1,-11,1.29
O=C(C(=O)N1CCN(c2ccccc2F)CC1)c1ccc2c(c1)CCC2,-4,0.8
CN1CCN(C(=O)CCNC(=O)N2CCC[C@H]2c2ccc(F)c(F)c2)CC1,-9,1.43
CCOc1cccc2c1OCC(C(=O)n1c(N)nnc1N1CCCCC1)=C2,-2,0.28
CCC(C)(C)NC(=O)Cc1cccs1,-7,1.38
CN1C(=O)[C@@H]2CCCCN2c2ccc(C(=O)N3CCN(c4ccc(Cl)cc4)CC3)cc21,11,-1.61
O=C(COc1ccc(F)c(F)c1)N1CCO[C@@H](Cn2cccn2)C1,-10,2.12
COc1ccc(COc2c(C)nn(C)c2C)cc1F,-6,0.96
COc1ccc(CNC(C)(C)CC(C)(C)C)cc1OC,-9,1.4
Cc1nc([C@@H]2CCCN2C(=O)c2ccnn2-c2ccccc2)cs1,13,-1.5
Cc1c(C(=O)N[C@@H]2COCC[C@@H]2OCC(N)=O)n(C)c2c(C)cccc12,10,-1.19
Cc1nonc1NC(=O)CN1C(=O)c2ccccc2C1=O,-14,2.55
CC(C)c1nc(COC(=O)c2cc(Cl)c[nH]2)cs1,0,0.04
CC(CC(=O)N1CCOCC1)NC1CCN(c2ccc(Cl)c(F)c2)C1=O (centres undefined),-21,2.26
CCN(CC)C(=O)c1ccc(COc2ccc3c(c2)[C@H](c2ccc(F)cc2)N(C(=O)C(C)C)CC3)o1,-17,2.65
COc1ccc([C@H](C)NCCc2cn(C)cn2)cc1,-7,1.22
O=C1C[C@@H](c2ccsc2)c2ncn(-c3cc(F)cc(F)c3)c2N1,-1,0.11
Cc1cccc([C@H]2CCCN(C(=O)NCCc3nccs3)C2)c1,-4,0.84
O=C(NCCc1ccco1)c1ccc(Oc2ccc(C(F)(F)F)cn2)cc1,-15,2.75
CCc1ccc(C(=O)N2CCNC(=O)C2)o1,-11,1.03
